Data as given in the supplement of paper PMC8728848.
This is one part of the list.

Key:
Test in all cases: glycan array binding signal (z-score within array); higher = stronger binding
Conditions in all cases: glycan notation: IUPAC condensed, linker removed
[1] = biological target: Neu5Ac(a2-6)Gal(b1-4)GlcNAc(b1-2)Man(a1-3)[GlcNAc(b1-2)Man(a1-6)]Man(b1-4)GlcNAc(b1-4)GlcNAc
Outline: (§1)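 The binding signal is a Z-score computed within each array and averaged over linkers. Arrays of the same protein sequence at different concentrations or buffers were also averaged together. Data originate from 3228 arrays in the Consortium for Functional Glycomics database, kept only where the protein sequence was available.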

[2] = biological target: Neu5Ac(a2-6)Gal(b1-4)GlcNAc(b1-2)Man(a1-3)[GlcNAc(b1-4)][Neu5Ac(a2-6)Gal(b1-4)GlcNAc(b1-2)Man(a1-6)]Man(b1-4)GlcNAc(b1-4)GlcNAc
Outline: as §1

[3] = biological target: Neu5Ac(a2-6)Gal(b1-4)GlcNAc(b1-2)Man(a1-3)[Man(a1-6)]Man(b1-4)GlcNAc(b1-4)GlcNAc
Outline: as §1

[4] = biological target: Neu5Ac(a2-6)Gal(b1-4)GlcNAc(b1-2)Man(a1-3)[Neu5Ac(a2-3)Gal(b1-4)GlcNAc(b1-2)Man(a1-6)]Man(b1-4)GlcNAc(b1-4)GlcNAc
Outline: as §1

[5] = biological target: Neu5Ac(a2-6)Gal(b1-4)GlcNAc(b1-2)Man(a1-3)[Neu5Ac(a2-6)Gal(b1-4)GlcNAc(b1-2)Man(a1-6)]Man(b1-4)GlcNAc(b1-4)GlcNAc
Outline: as §1

[6] = biological target: Neu5Ac(a2-6)Gal(b1-4)GlcNAc(b1-2)Man(a1-3)[Neu5Ac(a2-6)Gal(b1-4)GlcNAc(b1-2)Man(a1-6)]Man(b1-4)GlcNAc(b1-4)[Fuc(a1-6)]GlcNAc
Outline: as §1

[7] = biological target: Neu5Ac(a2-6)Gal(b1-4)GlcNAc(b1-2)Man(a1-6)Man(b1-4)GlcNAc(b1-4)GlcNAc
Outline: as §1

[8] = biological target: Neu5Ac(a2-6)Gal(b1-4)GlcNAc(b1-2)Man(a1-6)[Gal(b1-4)GlcNAc(b1-2)Man(a1-3)]Man(b1-4)GlcNAc(b1-4)GlcNAc
Outline: as §1

[9] = biological target: Neu5Ac(a2-6)Gal(b1-4)GlcNAc(b1-2)Man(a1-6)[GlcNAc(b1-2)Man(a1-3)]Man(b1-4)GlcNAc(b1-4)GlcNAc
Outline: as §1

[10] = biological target: Neu5Ac(a2-6)Gal(b1-4)GlcNAc(b1-2)Man(a1-6)[Man(a1-3)]Man(b1-4)GlcNAc(b1-4)GlcNAc
Outline: as §1

[11] = biological target: Neu5Ac(a2-6)Gal(b1-4)GlcNAc(b1-2)[Neu5Ac(a2-6)Gal(b1-4)GlcNAc(b1-4)]Man(a1-3)[GlcNAc(b1-4)][Neu5Ac(a2-6)Gal(b1-4)GlcNAc(b1-2)[Neu5Ac(a2-6)Gal(b1-4)GlcNAc(b1-6)]Man(a1-6)]Man(b1-4)GlcNAc(b1-4)GlcNAc
Outline: as §1

[12] = biological target: Neu5Ac(a2-6)Gal(b1-4)GlcNAc(b1-2)[Neu5Ac(a2-6)Gal(b1-4)GlcNAc(b1-4)]Man(a1-3)[GlcNAc(b1-4)][Neu5Ac(a2-6)Gal(b1-4)GlcNAc(b1-4)Man(a1-6)]Man(b1-4)GlcNAc(b1-4)GlcNAc
Outline: as §1

[13] = biological target: Neu5Ac(a2-6)Gal(b1-4)GlcNAc(b1-2)[Neu5Ac(a2-6)Gal(b1-4)GlcNAc(b1-6)]Man(a1-6)[Neu5Ac(a2-6)Gal(b1-4)GlcNAc(b1-2)Man(a1-3)][GlcNAc(b1-4)]Man(b1-4)GlcNAc(b1-4)GlcNAc
Outline: as §1

[14] = biological target: Neu5Ac(a2-6)Gal(b1-4)GlcNAc(b1-3)Gal(b1-3)GlcNAc
Outline: as §1

[15] = biological target: Neu5Ac(a2-6)Gal(b1-4)GlcNAc(b1-3)Gal(b1-4)GlcNAc
Outline: as §1

[16] = biological target: Neu5Ac(a2-6)Gal(b1-4)GlcNAc(b1-3)Gal(b1-4)GlcNAc(b1-2)Man(a1-3)[Neu5Ac(a2-6)Gal(b1-4)GlcNAc(b1-3)Gal(b1-4)GlcNAc(b1-2)Man(a1-6)]GalNAc
Outline: as §1

[17] = biological target: Neu5Ac(a2-6)Gal(b1-4)GlcNAc(b1-3)Gal(b1-4)GlcNAc(b1-3)Gal(b1-4)GlcNAc
Outline: as §1

[18] = biological target: Neu5Ac(a2-6)Gal(b1-4)GlcNAc(b1-3)Gal(b1-4)GlcNAc(b1-3)Gal(b1-4)GlcNAc(b1-2)Man(a1-3)[Neu5Ac(a2-6)Gal(b1-4)GlcNAc(b1-3)Gal(b1-4)GlcNAc(b1-3)Gal(b1-4)GlcNAc(b1-2)Man(a1-6)]GalNAc
Outline: as §1

[19] = biological target: Neu5Ac(a2-6)Gal(b1-4)GlcNAc(b1-3)Gal(b1-4)GlcNAc(b1-3)GalNAc
Outline: as §1

[20] = biological target: Neu5Ac(a2-6)Gal(b1-4)GlcNAc(b1-3)Gal(b1-4)GlcNAc(b1-3)[Neu5Ac(a2-6)Gal(b1-4)GlcNAc(b1-3)Gal(b1-4)GlcNAc(b1-6)]GalNAc
Outline: as §1

[21] = biological target: Neu5Ac(a2-6)Gal(b1-4)GlcNAc(b1-3)Gal(b1-4)GlcNAc(b1-6)[Gal(b1-3)]GalNAc
Outline: as §1

[22] = biological target: Neu5Ac(a2-6)Gal(b1-4)GlcNAc(b1-3)Gal(b1-4)[Fuc(a1-3)]GlcNAc(b1-3)Gal(b1-4)[Fuc(a1-3)]GlcNAc
Outline: as §1

[23] = biological target: Neu5Ac(a2-6)Gal(b1-4)GlcNAc(b1-3)GalNAc
Outline: as §1

[24] = biological target: Neu5Ac(a2-6)Gal(b1-4)GlcNAc(b1-3)[Neu5Ac(a2-6)Gal(b1-4)GlcNAc(b1-6)]GalNAc
Outline: as §1

[25] = biological target: Neu5Ac(a2-6)Gal(b1-4)GlcNAc(b1-6)GalNAc
Outline: as §1

[26] = biological target: Neu5Ac(a2-6)Gal(b1-4)GlcNAc(b1-6)[Gal(b1-3)GlcNAc(b1-3)]Gal(b1-4)Glc
Outline: as §1

[27] = biological target: Neu5Ac(a2-6)Gal(b1-4)GlcNAc(b1-6)[Gal(b1-3)]GalNAc
Outline: as §1

[28] = biological target: Neu5Ac(a2-6)Gal(b1-4)GlcNAc6S
Outline: as §1

[29] = biological target: Neu5Ac(a2-6)GalNAc
Outline: as §1

[30] = biological target: Neu5Ac(a2-6)GalNAc(b1-4)GlcNAc
Outline: as §1

[31] = biological target: Neu5Ac(a2-6)GalNAc(b1-4)GlcNAc6S
Outline: as §1

[32] = biological target: Neu5Ac(a2-6)GlcNAc(b1-4)GlcNAc
Outline: as §1

B1: XL-35 (Xenopus laevis) (protein)
chain: MLVHILLLLVTGGLSQSCDPVVIVASKNMVKQLDCDKFRNCKEIKDSNEEAQDGIYTLTSPDGISYQTFCDMTTNGGGWTLVASVHENNMAGKCTIGDRWSSQQGNRADYPEGDGNWANYNTFGSAGGATSDDYKNPGYYDIEAYNLGVWHVPNKTPLSVWRNSSLQRYRTTDGILFKHGGNLFSLYRIYPVKYGIGSCSKDSGPTVPVVYDLGSANLTASFYSPGFRSQFTPGYIQFRPINTEKAALALCPGMKMESCNVEHVCIGGGGYFPEADPRQCGDFAAYDFNGYGTKKFNSAGIEITEAAVLLFYL
glycan array binding signal (z-score) [1]: -0.328
glycan array binding signal (z-score) [2]: -0.412
glycan array binding signal (z-score) [3]: -0.249
glycan array binding signal (z-score) [4]: -0.126
glycan array binding signal (z-score) [5]: 0.044
glycan array binding signal (z-score) [6]: 0.029
glycan array binding signal (z-score) [7]: -0.2
glycan array binding signal (z-score) [8]: -0.115
glycan array binding signal (z-score) [9]: 0.009
glycan array binding signal (z-score) [10]: -0.725
glycan array binding signal (z-score) [11]: -0.371
glycan array binding signal (z-score) [12]: 0.185
glycan array binding signal (z-score) [13]: -0.157
glycan array binding signal (z-score) [14]: 0.091
glycan array binding signal (z-score) [15]: -0.13
glycan array binding signal (z-score) [16]: -0.447
glycan array binding signal (z-score) [17]: -0.208
glycan array binding signal (z-score) [18]: -0.111
glycan array binding signal (z-score) [19]: 0.385
glycan array binding signal (z-score) [20]: 0.264
glycan array binding signal (z-score) [21]: -0.293
glycan array binding signal (z-score) [22]: -0.147
glycan array binding signal (z-score) [23]: -0.374
glycan array binding signal (z-score) [24]: -0.519
glycan array binding signal (z-score) [25]: -0.112
glycan array binding signal (z-score) [26]: -0.272
glycan array binding signal (z-score) [27]: 0.356
glycan array binding signal (z-score) [28]: -0.145
glycan array binding signal (z-score) [29]: -0.115
glycan array binding signal (z-score) [30]: -0.041
glycan array binding signal (z-score) [31]: 0.22
glycan array binding signal (z-score) [32]: 0.131
